About 4,300 (8.3%) of roughly 52,000 compounds were called active. Cut-off read from the data, not from the text of the source: active = survival mostly below about 52% (no sharp cut-off); inactive = mostly above about 56%. The list shows a part of the results.

The test system of this assay is DeltatarO mutant. Nature of the assay: growth inhibition of S. aureus wild type versus tarO mutant, primary screen, teichoic acid synthesis inhibitors, RN4220, OD600 (AID 463173). Conditions: OD600, 18 h, active compounds read low, screened at 18.75 µg/mL (by protocol).
As for `CC1CCC(N2CC(=O)N(C3CCCCC3)C(c3ccc(F)cc3)C2=O)CC1` (stereo not given), the survival was inactive: 82%. With `Cc1ccc2c(c1)N(C(=O)Nc1cccc(C)c1C)CCO2`, the survival was inactive: 80%. `O=S1(=O)c2ccccc2-c2cc(Br)ccc21`: the survival was inactive: 79%. To `CC1Cc2cc(S(=O)(=O)NCCc3ccccc3)ccc2N1C(=O)C1CCC1` (stereo not given) belongs inactive: 85%; to `CCCc1nnc(NC(=O)c2cc(=O)c3cc(Cl)ccc3o2)s1`, active: 43%. For the compound `Clc1ccccc1CN1CCN(Cc2ccco2)CC1`, the survival is inactive: 86%. As for `CC(=O)c1cc(-c2ccccc2)n(CCC(=O)Nc2ccc(C)cc2C)c1C`, the survival is inactive: 82%. With `COc1ccc(N2CC(NC(=O)c3cc4ccccc4o3)CC2=O)cc1` (stereo not given), the survival was inactive: 102%. To `C=CCn1c(CNC(=O)c2ccccc2)n[nH]c1=S` belongs inactive: 78%; to `COc1cccc(-c2nc(SCC(=O)NC3CCCC3)c(-c3ccccc3)[nH]2)c1`, inactive: 55%; to `COc1ccc(NC(=O)Cn2cnc3ccc(S(=O)(=O)N4CCC(C)CC4)cc3c2=O)cc1OC`, inactive: 59%. In the case of `CCOc1ccc(NC(=O)/C=C\C(=O)N(c2ccc(C(C)C)cc2)C(C(=O)NCc2ccco2)c2ccc(F)cc2)cc1` (stereo not given), the survival was inactive: 83%.

In the case of `CCOc1ccc(-c2nc(SCC(=O)NC3CCCC3)c(-c3ccccc3)[nH]2)cc1OC`, the survival is inactive: 55%. In the case of `O=C(NC1CCN(C(=S)NCc2ccco2)CC1)NC12CC3CC(CC(C3)C1)C2`, the survival is inactive: 93%.

`COc1ccc(CNCCC(c2ccccc2)c2ccc3c(c2)OCO3)cc1` (stereo not given): the survival is active: -14%.

Regarding `CCNC(=S)N1C2CCCC1CC(NC(=O)C1CC1)C2` (stereo not given), the survival was inactive: 61%. As for `CCCC1=Nc2cc(C(=O)NCCc3ccccc3)ccc2Sc2ccc(C)cc21`, the survival was inactive: 87%. In the case of `Cc1cc(Br)ccc1NC(=O)c1ccc(NS(=O)(=O)c2c(C)noc2C)cc1`, the survival is inactive: 59%.

Consider `Cc1cc(C)cc(Oc2c(F)c(F)c(F)c(F)c2F)c1`, for which the survival was inactive: 73%. As for `Nc1c(-c2nc(-c3ccc4c(c3)OCO4)cs2)c2ccccn2c1C(=O)c1ccccc1`, the survival was inactive: 69%. As to `COc1cc(C(=O)N2CCc3c([nH]c4ccccc34)C2c2ccc(C)cc2)cc(OC)c1OC` (stereo not given), the survival is inactive: 99%. As to `O=C(CSc1nc(-c2cccs2)nc2cc(=O)[nH]n12)Nc1ccccc1F`, the survival is active: 47%. Turning to `CCCOc1ccc(C(=O)Nc2ccc(Cl)c(-c3nc4ncccc4o3)c2)cc1`, the survival is inactive: 56%. As to `CCOc1ccc(CCNC(=O)CSc2cc(=O)n(C)c3cc(Cl)ccc23)cc1OCC`, the survival is inactive: 91%.

As to `CC(C)=CC(=O)Nc1nnc(Cc2ccccc2)s1`, the survival was inactive: 55%.

Turning to `Cc1c(-c2nsc(NC(=O)c3cccc(Cl)c3)n2)nnn1-c1ccccc1C(F)(F)F`, the survival was active: -4%.

As for `Nc1nnc2c(Nc3ccccc3)nc3nonc3n12`, the survival is inactive: 86%.

Turning to `CSc1ccc(CCNC(=O)CN2C(=O)c3cccnc3Oc3ccc(Cl)cc32)cc1`, the survival was inactive: 70%. In the case of `CCOc1ccc(CCNC(=O)CCc2c(C)nc3cc(-c4ccccc4OC)nn3c2C)cc1` it was active: 50%; in that of `CCN(CC)c1ccc(NC(=O)C2CCN(S(=O)(=O)c3c(C)noc3/C=C/c3ccccc3F)CC2)c(C)c1`, inactive: 90%. `CC(C)(C)C1CCc2c(sc3nc(-c4cc5cc(Cl)ccc5oc4=O)[nH]c(=O)c23)C1` (stereo not given): the survival was inactive: 83%. In the case of `Cc1cc(=O)[nH]c2c(C)c(Cl)ccc12` it was inactive: 93%. On to `Cc1ccc(NC(=O)Cn2nc(C(F)(F)F)c3c2CCCC3)cc1`, for which the survival is inactive: 120%. Consider `Cc1ccc(S(=O)(=O)NCCc2nnc3ccc(SCC(=O)Nc4c(C)cc(C)cc4C)nn23)cc1`, for which the survival is inactive: 78%. For `CCn1c(CNC(=O)c2ccc(OC)cc2)nnc1SCC(=O)Nc1cccc(C)c1`, the survival was inactive: 125%. `Cc1ccc(S(=O)(=O)N2CCCc3cc(NC(=O)c4ccc(Cl)cc4)ccc32)cc1`: the survival is inactive: 80%. To `CCOc1ccc(CCNC(=O)c2c3c(nc4ccccc24)C(=O)N(C2CCCCC2)C3)cc1` belongs inactive: 72%; to `COc1ccccc1C(=O)NC(=O)Nc1ccc(-c2cc(C(F)(F)F)nn2-c2ccccc2)cc1`, active: 30%. In the case of `CCc1ccc(C(=O)c2cn(CC(=O)Nc3ccc4c(c3)OCO4)c3ccc(Cl)cc3c2=O)cc1`, the survival is inactive: 72%. Regarding `CCc1ccc(N(CC)C(=O)c2cn(C)c(=O)c3cc(OC)c(OC)cc23)cc1`, the survival is inactive: 165%. As to `CCOc1ccc2c(c1)NC(c1ccc(OCC)c(OCC)c1)=NC(c1ccc(F)cc1)=N2`, the survival was inactive: 75%. In the case of `CCCCn1c(=O)c2oc3ccccc3c2n(Cc2ccc(C)cc2)c1=O`, the survival is inactive: 62%. `CCCN(CCC)CN1C(=O)S/C(=C/c2ccc(N(CC)CC)cc2)C1=O`: the survival was inactive: 68%.

With `Cc1cc(SCC(=O)Nc2ccc(F)cc2F)nc(=O)[nH]1`, the survival was inactive: 115%. On to `COc1ccc2ncc3c(-c4ccc(C)c(C)c4)nn(CC(=O)Nc4ccccc4)c3c2c1`, for which the survival was inactive: 102%.

On to `COC(=O)c1c(NC(=O)c2cc(=O)c3cc(C)cc(C)c3o2)sc2c1CCC2`, for which the survival was inactive: 80%. As to `CCOC(=O)c1ccc(NC(=O)c2nc(SCc3ccc(F)cc3)ncc2Cl)cc1`, the survival is inactive: 103%. To `O=c1c(Cl)c(N2CCN(CCO)CC2)cnn1-c1ccccc1` belongs inactive: 71%. Regarding `COc1ccccc1NC(=O)c1cc2cc3ccc(OC)c(Cl)c3nc2s1`, the survival was inactive: 92%. As to `O=C(NCCc1ccccc1Cl)c1cc2ccccn2n1`, the survival was inactive: 125%.

In the case of `Cc1ccc(CC(=O)NCc2nc(-c3ccccc3)no2)cc1`, the survival is inactive: 77%. In the case of `CCCN(CCC)C(=O)C1CCN(c2cc(C)nc3c(-c4ccc(Cl)cc4)c(C)nn23)CC1`, the survival was inactive: 97%.

As to `Cn1c(NCCCO)nc2c1c(=O)n(Cc1cccc(F)c1)c(=O)n2C`, the survival is inactive: 85%.

For `COc1ccc(C(=O)Nc2ccc(-c3nc4ccccc4s3)c(Cl)c2)cc1Cl`, the survival was inactive: 63%. `COc1cc(C(=O)Nc2cc(C)c(O)c(-c3nc4ccccc4s3)c2)cc(OC)c1OC`: the survival was inactive: 65%. `O=C(Cn1cc(S(=O)(=O)Cc2ccccc2F)c2ccccc21)Nc1ccc(F)c(Cl)c1`: the survival is inactive: 78%. With `COc1ccc(CNc2ncnc3c2c(-c2ccccc2)cn3-c2ccc(C)c(Cl)c2)cc1`, the survival is inactive: 83%.

Take `COc1cccc(C(=O)Nc2nc(-c3nnn(-c4cccc(Cl)c4C)c3C)ns2)c1`: the survival is active: -5%.

For the compound `COc1ccc2c(CNCc3ccco3)c(C(=O)O)n(Cc3cccc(F)c3)c2c1`, the survival is inactive: 64%.

Regarding `COc1ccc(NC(=O)Cn2c(=O)n(-c3ccc(OC)cc3)c(=O)c3sc4ccccc4c32)cc1`, the survival is inactive: 106%. On to `Cc1ccc(C)c(Cn2c(SCC(=O)NCc3ccccc3)nc3ccccc32)c1`, for which the survival was inactive: 73%.

Regarding `CCOC(=O)c1cccc(NC(=O)C2=C(C)C(=O)OC23CCCCC3)c1`, the survival was inactive: 89%.

Take `CCN(CC)N=Nc1ccc(S(=O)(=O)N2CCSC2C(=O)O)cc1` (stereo not given): the survival is inactive: 103%. On to `Cn1c(NCCN)nc2c1c(=O)n(Cc1ccccc1)c(=O)n2C`, for which the survival was inactive: 50%. Turning to `Cc1cc2nc(-c3ccc(OCc4ccccc4F)cc3)cc(C(F)(F)F)n2n1`, the survival was active: 45%.

Consider `CCCc1nn2c(=O)cc(COC(=O)c3ccc4c(c3)OCO4)nc2s1`, for which the survival was inactive: 82%. To `Cc1ccc(C)c(NC(=O)c2oc(=O)c3ccccc3c2-c2ccccc2)c1` belongs inactive: 67%; to `O=C1/C(=N\O)CCc2c1no[n+]2[O-]`, inactive: 80%; to `COc1ccccc1CCNC(=O)C1(c2cccs2)CCOCC1`, inactive: 76%. Turning to `CCc1cccc(NC(=O)CCn2nc(C)cc2C)c1`, the survival is inactive: 80%.

Regarding `COc1ccc(C2CC(=O)Nc3c2c(C)nn3-c2nc(C)cc(C)n2)c(OC)c1OC` (stereo not given), the survival is inactive: 66%. On to `CCC(=O)NCCc1sc2nc(-c3ccc(OC)cc3)nn2c1C`, for which the survival is inactive: 91%. Consider `COc1ccc(CCNC(=O)c2ccc3nc(CCc4ccccc4)oc3c2)cc1OC`, for which the survival is active: 37%. Consider `COc1ccc(NC(=O)Cn2c(=O)oc3cc(S(=O)(=O)N4CCCC4)ccc32)cc1OC`, for which the survival is inactive: 81%.

On to `Cc1cccc(CSc2nc3ccncc3n2CC(=O)N(C)C2CCCCC2)c1`, for which the survival was inactive: 91%. Consider `CCC(C)(C)Nc1ncccc1C(=O)O`, for which the survival is inactive: 111%. As to `COc1ccc(NC(=O)Cn2cnc3c(nc4n3CCCCC4)c2=O)cc1Cl`, the survival was inactive: 84%. Regarding `Cc1cccc(N2CCN(C(=O)Cc3c(C(=O)O)c(C)cn3C)CC2C)c1` (stereo not given), the survival is inactive: 100%. In the case of `CN(Cc1ccccc1)C(=O)c1ccc(CSc2nc3cccnc3n2Cc2ccccc2)cc1` it was inactive: 124%; in that of `COc1ccc(N2CCN(C(=O)C3CCCN(S(=O)(=O)c4ccc5c(c4)oc(=O)n5C)C3)CC2)cc1` (stereo not given), inactive: 96%; in that of `COC(=O)c1cc2c(ccn2-c2ccc(F)cc2)n1CC1CCCCC1`, inactive: 88%. In the case of `CCOC(=O)c1ccccc1NC(=O)c1sc2nc(-c3ccc(F)cc3)cn2c1C` it was inactive: 67%. Take `COc1ccc(-c2nc3ccccc3o2)cc1NC(=O)c1cc(Br)ccc1OC`: the survival is active: 40%. For the compound `COc1ccc(C)cc1NC(=O)NCCn1nnc2cc(S(=O)(=O)N(C)C)ccc21`, the survival was inactive: 89%.

Turning to `Cc1nnc(NC(=O)CSc2nc3c([nH]c4ccccc43)c(=O)n2-c2cccc(Cl)c2)s1`, the survival is inactive: 79%. For the compound `COc1ccc(CCNC(=O)c2cnc3sc(N4CCCCCC4)nn3c2=O)cc1`, the survival was inactive: 65%.

On to `Cc1ccc(C(=O)OCc2cc(=O)n3nc(CC(C)C)sc3n2)cc1`, for which the survival was inactive: 122%. In the case of `Cc1ccc(N2C(=O)CSC23C(=O)N(CC(=O)NCCc2ccccc2)c2ccccc23)cc1` (stereo not given) it was inactive: 80%; in that of `CCC1CN(C(=O)N2CCC(C(=O)NCc3cccs3)CC2)c2ccccc2O1` (stereo not given), inactive: 78%. For `N#CC1=C(N)Oc2n[nH]c(CSc3ccccc3)c2C1Cc1ccccc1` (stereo not given), the survival was inactive: 65%.
